Test results from patent US20250326769A1, “HETEROAROMATIC MACROCYCLIC ETHER CHEMOTHERAPEUTIC AGENTS” (Nuvalent, Inc., priority 2022, published 2025).
At least one compound was matched to its structure with a doubt left.

Assays:
[1] = target: Ba/F3 EML4-ALK v1 I1171N/D1203N (Homo sapiens (Human), UniProt Q9HC35+Q9UM73, D1203N/I1171N); experiment: Ba/F3 cell proliferation assay, EML4-ALK v1 I1171N/D1203N; type: cell-based; details: TRKB selectivity, ratio of Ba/F3 IC50 values
Excerpt: (§1) Genes encoding EML4-ALK v1 (variant 1), EML4-ALK v1 G1202R, EML4-ALK v1 I1171IN, EML4-ALK v1 D1203N, EML4-ALK v1 I1171N/D1203N, and ETV6-TRKB were synthesized at GeneRay, cloned into the retroviral construct pMSCV-puro (Biovector), and packaged into retroviral particles. The virus was used to infect Ba/F3 cells (RIKEN) at multiplicity of infection=1 for 1 day. Infected cells were rescued in media (RPMI-1640 with 10% fetal bovine serum and 1% streptomycin and penicillin) supplemented with mouse IL-3 (10 ng/mL) for 2 days, and stable cell lines were selected by IL-3 withdrawal and puromycin (0.8 μg/mL) for 7 days. Monoclones were selected by single-cell dilution in IL-3-free medium containing puromycin (0.8 μg/mL). Transformation of desired genes was confirmed by Sanger sequencing and western blot using the following antibodies: ALK (CST #3633) and pan-TRK (Abcam #76291).
(§2) Stable cells were plated in a 384-well plate. Test compounds were then added in a 3-fold dilution series and incubated for 72 hours. CellTiter-Glo reagent (Promega) was added. Luminescence was measured on a plate reader. Half-maximal inhibitory concentration (ICso) was calculated from percent inhibition and inhibitor concentration using four-parameter logistic regression. Compound potency can be interpreted by binning IC50 values: bin A for high potency, 0.1 nM IC50<50 nM; bin B for medium potency, 50 nM<IC50<500 nM; and bin C for low potency, IC50>500 nM. […] Exemplary data is given in Table 4 (nd is not determined).
(§3) Ba/F3 proliferation is driven by the transduced oncogenes in the same way that cancer cell proliferation in humans is driven by the expression of equivalent oncogenes.
(§4) TRKB selectivity was calculated by dividing a compound's TRKB potency by its primary target potency (e.g., ETV6-TRKB IC50/EML4-ALK v1 IC50). Compound selectivity can be interpreted by binning ratio values: bin A for very high selectivity, ratio≥30-fold; bin B for high selectivity, ratio≥10-fold but<30; bin C for moderate selectivity, ratio≥1 but<10; and bin D for low selectivity, ratio<1. […] (nd=not determined).
Additional exemplified compounds were also tested against ALK-INDN and TRKB. The TRKB selectivity was calculated by dividing a compound's TRKB potency by its primary target potency (e.g., ETV6-TRKB IC50/EMIL4-ALK I1171N-D1203N v1 IC50). Compound selectivity can be interpreted by binning ratio values: bin AA for the selectivity with the ratio≥30-fold; bin BB for the selectivity with the ratio≥10-fold but<30; bin CC for the selectivity with the ratio≥5 but<10; bin DD for the selectivity with the ratio≥1 but<5; and bin EE for the selectivity with the ratio<1.

Ba/F3 EML4-ALK v1 I1171N = Ba/F3 EML4-ALK v1 I1171N (Homo sapiens (Human), UniProt Q9HC35+Q9UM73, I1171N); experiment: Ba/F3 cell proliferation assay, EML4-ALK v1 I1171N; type: cell-based; details: TRKB selectivity, ratio of Ba/F3 IC50 values
Excerpt: as §1, §2, §3, §4

Ba/F3 EML4-ALK v1 I1171N, sequence (Q9UM73 other isoform, or with tags, fused parts or gaps I1171N): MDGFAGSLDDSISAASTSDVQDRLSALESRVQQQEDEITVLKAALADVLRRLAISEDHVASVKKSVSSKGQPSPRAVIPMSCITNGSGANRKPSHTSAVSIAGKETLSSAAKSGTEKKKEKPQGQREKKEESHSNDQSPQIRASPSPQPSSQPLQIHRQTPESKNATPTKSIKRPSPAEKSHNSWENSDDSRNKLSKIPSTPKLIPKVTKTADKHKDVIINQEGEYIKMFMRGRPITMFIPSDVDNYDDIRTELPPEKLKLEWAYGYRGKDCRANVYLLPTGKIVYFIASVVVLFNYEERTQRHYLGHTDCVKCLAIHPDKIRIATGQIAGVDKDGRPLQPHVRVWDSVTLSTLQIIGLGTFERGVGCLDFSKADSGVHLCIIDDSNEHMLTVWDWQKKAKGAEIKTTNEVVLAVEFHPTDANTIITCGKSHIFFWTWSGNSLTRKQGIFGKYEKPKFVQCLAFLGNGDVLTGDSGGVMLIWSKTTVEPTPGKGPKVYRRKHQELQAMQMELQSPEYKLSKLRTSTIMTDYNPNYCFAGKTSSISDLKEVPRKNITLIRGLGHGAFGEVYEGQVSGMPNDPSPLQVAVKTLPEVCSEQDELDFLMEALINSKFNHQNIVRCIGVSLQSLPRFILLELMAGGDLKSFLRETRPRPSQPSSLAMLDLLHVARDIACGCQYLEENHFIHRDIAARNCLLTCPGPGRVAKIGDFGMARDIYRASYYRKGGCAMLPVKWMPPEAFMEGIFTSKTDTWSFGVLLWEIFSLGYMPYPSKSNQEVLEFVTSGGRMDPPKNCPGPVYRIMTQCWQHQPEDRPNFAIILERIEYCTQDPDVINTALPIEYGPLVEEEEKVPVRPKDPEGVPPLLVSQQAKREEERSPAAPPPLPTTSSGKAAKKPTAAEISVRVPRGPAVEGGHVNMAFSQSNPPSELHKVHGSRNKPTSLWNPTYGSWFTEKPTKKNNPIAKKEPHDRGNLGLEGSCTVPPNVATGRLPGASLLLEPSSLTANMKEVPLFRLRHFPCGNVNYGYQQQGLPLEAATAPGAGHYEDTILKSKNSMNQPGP
Ba/F3 EML4-ALK v1 I1171N/D1203N, sequence (Q9UM73 other isoform, or with tags, fused parts or gaps I1171N/D1203N): as the sequence (Q9UM73 other isoform, or with tags, fused parts or gaps I1171N) above, with D642N counted along it

| Compound | ETV6-TRKB / EML4-ALK v1 I1171N/D1203N [1] | ETV6-TRKB / EML4-ALK v1 I1171N (Ba/F3 EML4-ALK v1 I1171N) |
| --- | --- | --- |
| C[C@H]1Oc2cc(cnc2N)-c2c(c(C(N)=O)nn2CC2CC2)Cc2cccnc2-c2ccc(F)cc21 [Example 6, (R)-23-amino-3-(cyclopropylmethyl)-17-fluoro-20-methyl-21-oxa-3,4,12,24-tetraazapentacyclo[20.3.1.0^2,^6.0^8,^13.0^14,^19]hexacosa-1(25),2(6),4,8(13),9,11,14,16, 18,22(26),23-undecaene-5-carboxamide] | B (bin B for high selectivity, ratio≥10-fold but<30) |  |
| CCn1ncc2c1-c1cnc(N)c(c1)O[C@H](C)c1cc(F)ccc1-c1ncccc1O2 [Example 14, (R)-3-ethyl-17-fluoro-20-methyl-7,21-dioxa-3,4,12,24-tetraazapentacyclo[20.3.1.0^2,^6.0^8,^13.0^14,^19]hexacosa-1(25),2(6),4,8(13),9,11,14,16,18,22(26),23-undecaen-23-ylamine] | D (bin D for low selectivity, ratio<1) | C (bin C for moderate selectivity, ratio≥1 but<10) |
| CC(C)N(C)C(=O)c1nn(CC2CC2)c2c1Cc1cn(C)nc1-c1ccc(F)cc1[C@@H](C)Oc1cc-2cnc1N [Example 37, N-isopropyl-N-methyl-(R)-22-amino-3-(cyclopropylmethyl)-16-fluoro-10-methyl-19-methyl-20-oxa-3,4,10,11,23-pentaazapentacyclo[19.3.1.0^2,^6.0^8,^12.0^13,^18]pentacosa-1(24),2(6),4,8,11,13,15,17,21(25),22-decaene-5-carboxamide] | B (bin B for high selectivity, ratio≥10-fold but<30) |  |
| CCN(C)C(=O)c1nn(CC2CC2)c2c1Cc1cn(C)nc1-c1ccc(F)cc1[C@@H](C)Oc1cc-2cnc1N [Example 38, N-ethyl-N-methyl-(R)-22-amino-3-(cyclopropylmethyl)-16-fluoro-10-methyl-19-methyl-20-oxa-3,4,10,11,23-pentaazapentacyclo[19.3.1.0^2,^6.0^8,^12.0^13,^18]pentacosa-1(24),2(6),4,8,11,13,15,17,21(25),22-decaene-5-carboxamide] | A (bin A for very high selectivity, ratio≥30-fold) | A (bin A for very high selectivity, ratio≥30-fold) |
| Cc1cc2n(n1)-c1c(F)cc(F)cc1[C@@H](C)Oc1cc(cnc1N)-c1c(c(C(=O)N(C)C)nn1CC1CC1)C2 [Example 44, N,N-dimethyl-(R)-22-amino-3-(cyclopropylmethyl)-14,16-difluoro-10,19-dimethyl-20-oxa-3,4,11,12,23-pentaazapentacyclo[19.3.1.0^2,^6.0^8,^12.0^13,^18]pentacosa-1(24),2(6),4,8, 10,13,15,17,21(25),22-decaene-5-carboxamide] | A (bin A for very high selectivity, ratio≥30-fold) |  |
| CCn1nc(C(=O)N(C)C)c2c1-c1cnc(N)c(c1)O[C@H](C)c1cc(F)ccc1-c1ncccc1C2=O [Example 47, N,N-dimethyl-(R)-23-amino-3-ethyl-17-fluoro-20-methyl-7-oxo-21-oxa-3,4,12,24-tetraazapentacyclo[20.3.1.0^2,^6.0^8,^13.0^14,^19]hexacosa-1(25),2(6),4,8(13),9,11,14,16,18,22(26),23-undecaene-5-carboxamide] | B (bin B for high selectivity, ratio≥10-fold but<30) |  |
| C[C@H]1Oc2cc(cnc2N)-c2c(c(C(=O)N(C)C)nn2C2CCC2)Cc2cccnc2-c2ccc(F)cc21 [Example 48, N,N-dimethyl-(R)-23-amino-3-cyclobutyl-17-fluoro-20-methyl-21-oxa-3,4,12,24-tetraazapentacyclo[20.3.1.0^2,^6.0^8,^13.0^14,^19]hexacosa-1(25),2(6),4,8(13),9,11,14,16,18,22(26),23-undecaene-5-carboxamide] | A (bin A for very high selectivity, ratio≥30-fold) | B (bin B for high selectivity, ratio≥10-fold but<30) |
| C[C@H]1Oc2cc(cnc2N)-c2c(C3CCC3)nn(C(=O)N(C)C)c2Cc2cccnc2-c2ccc(F)cc21 [Example 57, (R)-5-(N,N-dimethylcarbamoyl)-3-cyclobutyl-17-fluoro-20-methyl-21-oxa-4,5,12,24-tetraazapentacyclo[20.3.1.0^2,^6.0^8,^13.0^14,^19]hexacosa-1(25),2(6),3,8(13),9,11,14,16,18,22(26),23-undecaen-23-ylamine] | B (bin B for high selectivity, ratio≥10-fold but<30) | A (bin A for very high selectivity, ratio≥30-fold) |
| C[C@H]1Oc2cc(cnc2N)-c2c(nn(C)c2C#N)Oc2cccnc2-c2c(F)cc(F)cc21 [Example 61, (R)-23-amino-15,17-difluoro-4-methyl-20-methyl-7,21-dioxa-4,5,12,24-tetraazapentacyclo[20.3.1.0^2,^6.0^8,^13.0^14,^19]hexacosa-1(25),2,5,8(13),9,11,14,16,18,22(26),23-undecaene-3-carbonitrile] | B (bin B for high selectivity, ratio≥10-fold but<30) |  |
| Cc1cc2n(n1)-c1ccc(F)cc1[C@@H](C)Oc1cc(cnc1N)-c1c(c(C(=O)N(C)C)nn1C1CCC1)C2 [Example 67, N,N-dimethyl-(R)-22-amino-3-cyclobutyl-16-fluoro-10,19-dimethyl-20-oxa-3,4,11,12,23-pentaazapentacyclo[19.3.1.0^2,^6.0^8,^12.0^13,^18]pentacosa-1(24),2(6),4,8,10,13,15,17,21(25),22-decaene-5-carboxamide] | B (bin B for high selectivity, ratio≥10-fold but<30) |  |
| Cc1cc2n(n1)-c1c(F)cc(F)cc1[C@@H](C)Oc1cc(cnc1N)-c1c(nn(C)c1C#N)C2=O [Example 68, (R)-22-amino-14,16-difluoro-4-methyl-10,19-dimethyl-7-oxo-20-oxa-4,5,11,12,23-pentaazapentacyclo[19.3.1.0^2,^6.0^8,^12.0^13,^18]pentacosa-1(24),2,5,8,10,13,15,17,21(25),22-decaene-3-carbonitrile] | B (bin B for high selectivity, ratio≥10-fold but<30) |  |
| Cc1nc2c(s1)C(=O)c1nn(C)c(C#N)c1-c1cnc(N)c(c1)O[C@H](C)c1cc(F)ccc1-2 [Example 73, (R)-22-amino-16-fluoro-4-methyl-10,19-dimethyl-7-oxo-20-oxa-9-thia-4,5,11,23-tetraazapentacyclo[19.3.1.0^2,^6.0^8,^12.0^13,^18]pentacosa-1(24),2,5,8(12),10,13,15,17,21(25),22-decaene-3-carbonitrile] | B (bin B for high selectivity, ratio≥10-fold but<30) | B (bin B for high selectivity, ratio≥10-fold but<30) |
